Results as given in PubChem BioAssay AID312 (DTP/NCI, 2004).
Toxic doses and inconclusive results are not listed. For part of its entries the source gives two or more results. This is not the full list of results. The source may hold further records. The records of an entry repeat one measurement across runs, samples, wells, individuals or studies.

Tested on: BDF1 mice, C1498 leukemia ip, median survival T/C
Test: NCI In Vivo Anticancer Drug Screen. Data for tumor model C1498 Myeloid Leukemia (intraperitoneal) in B6D2F1 (BDF1) mice
Details: endpoint: median survival time, schedule: Q01DX010 (ip), vehicle: saline, higher = longer survival
Procedure: The antitumor activity of compounds was measured in mice bearing transplantable tumors. Survival or tumor size were measured and the results are expressed as the measurement made in the treated group (T) divided by the measurement made in the vehicle treated control group (C). The tumor model used in this assay is C1498 Myeloid Leukemia (intraperitoneal) in B6D2F1 (BDF1) mice

Structure (SMILES)	T/C (dose: 12.0 mg/kg/injection)	T/C (dose: 500.0 micrograms/kg/injection)	T/C (dose: 1000.0 micrograms/kg/injection)
O=C(Nc1ccc(C2=NCCN2)cc1)c1ccc(C(=O)Nc2ccc(C3=NCCN3)cc2)c([N+](=O)[O-])c1	100 % of control and 157 % of control	–	–
CC(=O)NC1=C(N2CC2)C(=O)C(NC(C)=O)=C(N2CC2)C1=O	–	122 % of control and 150 % of control	116 % of control and 163 % of control
